Here are results for 32 sequences from article PMC12820563.

Some of the results follow. The list includes weakly bound sequences.

In this experiment the target is T1, MBP-FoxP3dN (UniProt Q99JB6).
T1 sequence: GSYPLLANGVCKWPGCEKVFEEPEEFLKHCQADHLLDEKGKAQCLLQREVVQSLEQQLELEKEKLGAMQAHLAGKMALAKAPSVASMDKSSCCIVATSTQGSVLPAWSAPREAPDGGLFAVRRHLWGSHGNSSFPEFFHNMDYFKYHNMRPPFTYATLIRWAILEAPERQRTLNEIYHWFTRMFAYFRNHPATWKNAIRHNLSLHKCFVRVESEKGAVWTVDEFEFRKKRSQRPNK
Nature of the experiment: PD-seq (MBP pull-down with sequencing). Particulars: 20 mM Tris-HCl pH 7.5, 100 mM NaCl, 1.5 mM MgCl2, 0.4 uM protein, 0.1 uM dsDNA library, 30 min, room temperature, amylose pull-down; high values mean tight binding; double strand, one strand shown.
In the case of “GATGATTGTTCTCCCAGCTGATGAATTCGAGTTCTCGAGTAAACAAATTTTCCTAATCTTTCTGTTCAAGCGCCATCTAC”, the binding signal (RPM ratio (pull-down/input)) stood at 0.671. For “GATGATTGTTCTCCCAGCTGATGAATTTCCTGTTTCGAGTAAACAAATTTTCCTAATCTTTCTGTTCAAGCGCCATCTAC”, the binding signal (RPM ratio (pull-down/input)) turned out to be 0.338. As for “GATGATTGTTCTCCCAGCTGATGAATTACATGCTTCGAGTAAACAAATTTTCCTAATCTTTCTGTTCAAGCGCCATCTAC”, the binding signal (RPM ratio (pull-down/input)) came to 0.846.

For “GATGATTGTTCTCCCAGCTGATGAATTGAAGCGTTCGAGTAAACAAATTTTCCTAATCTTTCTGTTCAAGCGCCATCTAC”, the binding signal (RPM ratio (pull-down/input)) is 1.08.

In the case of “GATGATTGTTCTCCCAGCTGATGAATTGGGAGAATCGAGTAAACAAATTTTCCTAATCTTTCTGTTCAAGCGCCATCTAC”, the binding signal (RPM ratio (pull-down/input)) is 0.237. With “GATGATTGTTCTCCCAGCTGATGAATTACCCCGTTCGAGTAAACAAATTTTCCTAATCTTTCTGTTCAAGCGCCATCTAC” the figure was 0.275; with “GATGATTGTTCTCCCAGCTGATGAATTATTAGAGTCGAGTAAACAAATTTTCCTAATCTTTCTGTTCAAGCGCCATCTAC”, 0.319. For the sequence “GATGATTGTTCTCCCAGCTGATGAATTAATCTGATCGAGTAAACAAATTTTCCTAATCTTTCTGTTCAAGCGCCATCTAC”, the binding signal (RPM ratio (pull-down/input)) came out at 0.222.

For “GATGATTGTTCTCCCAGCTGATGAATTTGGAACTTCGAGTAAACAAATTTTCCTAATCTTTCTGTTCAAGCGCCATCTAC”, the binding signal (RPM ratio (pull-down/input)) was 0.32. As to “GATGATTGTTCTCCCAGCTGATGAATTCCGGGGTTCGAGTAAACAAATTTTCCTAATCTTTCTGTTCAAGCGCCATCTAC”, the binding signal (RPM ratio (pull-down/input)) was found to be 0.329. In the case of “GATGATTGTTCTCCCAGCTGATGAATTGTGGACTTCGAGTAAACAAATTTTCCTAATCTTTCTGTTCAAGCGCCATCTAC”, the binding signal (RPM ratio (pull-down/input)) was determined as 0.814. As for “GATGATTGTTCTCCCAGCTGATGAATTCGTTGATTCGAGTAAACAAATTTTCCTAATCTTTCTGTTCAAGCGCCATCTAC”, the binding signal (RPM ratio (pull-down/input)) was found to be 2.53.

On to “GATGATTGTTCTCCCAGCTGATGAATTTAAGCAGTCGAGTAAACAAATTTTCCTAATCTTTCTGTTCAAGCGCCATCTAC”, for which the binding signal (RPM ratio (pull-down/input)) was 0.462. The same measure for “GATGATTGTTCTCCCAGCTGATGAATTTGGATGGTCGAGTAAACAAATTTTCCTAATCTTTCTGTTCAAGCGCCATCTAC”: 0.869; for “GATGATTGTTCTCCCAGCTGATGAATTATCTTTCTCGAGTAAACAAATTTTCCTAATCTTTCTGTTCAAGCGCCATCTAC”: 0.346. As for “GATGATTGTTCTCCCAGCTGATGAATTGACACCCTCGAGTAAACAAATTTTCCTAATCTTTCTGTTCAAGCGCCATCTAC”, the binding signal (RPM ratio (pull-down/input)) came to 0.503. On to “GATGATTGTTCTCCCAGCTGATGAATTTGAGCGATCGAGTAAACAAATTTTCCTAATCTTTCTGTTCAAGCGCCATCTAC”, for which the binding signal (RPM ratio (pull-down/input)) came to 0.462. The same measure for “GATGATTGTTCTCCCAGCTGATGAATTAGTCGATTCGAGTAAACAAATTTTCCTAATCTTTCTGTTCAAGCGCCATCTAC”: 0.485; for “GATGATTGTTCTCCCAGCTGATGAATTATGGACTTCGAGTAAACAAATTTTCCTAATCTTTCTGTTCAAGCGCCATCTAC”: 0.516; for “GATGATTGTTCTCCCAGCTGATGAATTTGGGTACTCGAGTAAACAAATTTTCCTAATCTTTCTGTTCAAGCGCCATCTAC”: 1.24. The same measure for “GATGATTGTTCTCCCAGCTGATGAATTAATAGGGTCGAGTAAACAAATTTTCCTAATCTTTCTGTTCAAGCGCCATCTAC”: 0.423; for “GATGATTGTTCTCCCAGCTGATGAATTACCGGGTTCGAGTAAACAAATTTTCCTAATCTTTCTGTTCAAGCGCCATCTAC”: 0.319. The same measure for “GATGATTGTTCTCCCAGCTGATGAATTCGTGAGTTCGAGTAAACAAATTTTCCTAATCTTTCTGTTCAAGCGCCATCTAC”: 0.935.

“GATGATTGTTCTCCCAGCTGATGAATTAAAAGTCTCGAGTAAACAAATTTTCCTAATCTTTCTGTTCAAGCGCCATCTAC”: the binding signal (RPM ratio (pull-down/input)) turned out to be 0.266. For “GATGATTGTTCTCCCAGCTGATGAATTTATTGGTTCGAGTAAACAAATTTTCCTAATCTTTCTGTTCAAGCGCCATCTAC”, the binding signal (RPM ratio (pull-down/input)) was found to be 5.89. With “GATGATTGTTCTCCCAGCTGATGAATTCGTTTAGTCGAGTAAACAAATTTTCCTAATCTTTCTGTTCAAGCGCCATCTAC”, the binding signal (RPM ratio (pull-down/input)) is 2.93. As to “GATGATTGTTCTCCCAGCTGATGAATTTCACCGTTCGAGTAAACAAATTTTCCTAATCTTTCTGTTCAAGCGCCATCTAC”, the binding signal (RPM ratio (pull-down/input)) stood at 0.334. Regarding “GATGATTGTTCTCCCAGCTGATGAATTATGCAACTCGAGTAAACAAATTTTCCTAATCTTTCTGTTCAAGCGCCATCTAC”, the binding signal (RPM ratio (pull-down/input)) came out at 6.6. As to “GATGATTGTTCTCCCAGCTGATGAATTCCATGTGTCGAGTAAACAAATTTTCCTAATCTTTCTGTTCAAGCGCCATCTAC”, the binding signal (RPM ratio (pull-down/input)) is 0.842. Turning to “GATGATTGTTCTCCCAGCTGATGAATTTTTGTACTCGAGTAAACAAATTTTCCTAATCTTTCTGTTCAAGCGCCATCTAC”, the binding signal (RPM ratio (pull-down/input)) was 0.489. The same measure for “GATGATTGTTCTCCCAGCTGATGAATTTATCTAATCGAGTAAACAAATTTTCCTAATCTTTCTGTTCAAGCGCCATCTAC”: 0.706. With “GATGATTGTTCTCCCAGCTGATGAATTCGAAGTTTCGAGTAAACAAATTTTCCTAATCTTTCTGTTCAAGCGCCATCTAC”, the binding signal (RPM ratio (pull-down/input)) came to 0.338.
